The test system of this data set is ATP. As to the kind of experiment: switch fluorescence ratio, 500 uM ATP over buffer (Cy3 cluster intensity, sum of 5 cycles each) (fold (ratio)); higher = stronger signal-on switching upon ATP binding; sequences stand for … in TCGTCGGCAGCGTCAGATGTGTATAAGAGACAGTTTTTTTTTTTTTTTTTTTTTTTTT…TC. To be noted: aptamer strand: ATP DNA aptamer (quencher-CACCTGGGGGAGTATTGCGGAGGAAGG + anchor), 100 nM annealed; ATP concentration: 500 uM; one replicate. A digest of the protocol:
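Clusters with intensities outside 100-1000 RFU were excluded. The remaining Cy3-labelled switching-strand clusters on a modified Illumina MiSeq flow-cell had been annealed to 100 nM quencher-labelled ATP aptamer and imaged in selection buffer, then after 15 min with 500 uM ATP at 22 °C, for five cycles separated by NaOH stripping and re-annealing. The fluorescence ratio, averaged per switch-domain sequence, is each cluster's summed target-cycle Cy3 intensity over its summed buffer-cycle Cy3 intensity.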

Values marked as one replicate rest on one cluster of the flow cell; about a third of the high ones do not repeat.
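Also: ATP exposure 15 min at 22 °C before imaging.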

For TCACTGCTGG, the switch fluorescence ratio stood at 1.01.
On to TTTCATCACT, for which the switch fluorescence ratio worked out at 0.987.
The value for GTTGCCGCCA was 0.972; that for AAGGACGAGA was 1.02; that for CAAGAACGCA was 1.08.
Regarding TGCGTTTCCG, the switch fluorescence ratio stood at 1.
Take GTTATTGGT: the switch fluorescence ratio is 0.991.
Take CCCGGAA: the switch fluorescence ratio was 1.15.
Under TATCGGATAG stands 1.02; under CATATGTAGT, 0.964.
Under TAGACCAATC stands 1.07; under CGGAATTGG, 1.02; under CTCTTTCCCA, 1.
As for GACCGAACCA, the switch fluorescence ratio came out at 1.24.
TTCTTGTTAA: the switch fluorescence ratio worked out at 1.03.
For the sequence GAATCAAATA, the switch fluorescence ratio worked out at 0.97.
As for GATTCTAAAA, the switch fluorescence ratio is 1.01.
The value for GGGAGACGAA was 0.99.
GGGTTCGTGC: the switch fluorescence ratio amounted to 1.01.
The value for GGTTTTCCTT was 1.04; that for CAGATACCGT was 1.04.
The value for CTGGTTTAGA was 0.99; that for CTGCGTATAG was 1.24.
Under CTTGTTCAAT stands 0.944; under ATAGGAACAT, 0.984; under GGCTACTTAA, 1.04.
For the sequence CCCGTTGCCC, the switch fluorescence ratio came to 1.06.
For the sequence CTCACGTACA, the switch fluorescence ratio was 1.47.
As to TAGTGCTGCG, the switch fluorescence ratio amounted to 0.978.
For TTTTTTCTT, the switch fluorescence ratio is 0.995.
Under GCTCTGAGAA stands 1.04; under GAAAAGGCTA, 1.01; under GGTGTTTAAA, 0.949.
Turning to TACTGCAGG, the switch fluorescence ratio amounted to 1.03.
The value for CACTGTCGG was 0.966; that for CACTTATTCA was 1.05; that for TTTTTAGT was 0.946.
TCAGGAGACC: the switch fluorescence ratio is 1.02.
Under GTAGTTACTC stands 1.13; under GCTAGGGAGC, 0.969.
The value for AAGAGTTTAC was 0.968; that for CCTCGCTGGG was 2.18; that for CGTCACTGCA was 1.03.
GGAGCACT: the switch fluorescence ratio was found to be 1.49.
Consider TGGAGCGTGG, for which the switch fluorescence ratio turned out to be 0.993.
Under ATGTAGGTCT stands 1.01; under AAGAGCTAAC, 1.06; under GAGTGTTGAC, 0.986.
Take TTACCGGAGC: the switch fluorescence ratio worked out at 1.69.
The value for CGATTTTGAC was 1.02; that for GGGCGGCAAA was 1.02; that for CGATGGAATT was 1.1.
With CTTGGGGGTT, the switch fluorescence ratio came to 1.02.
Under TGCAGTCTGG stands 1.18.
Under AGGTTCTGC stands 0.976; under GGTTGTTTAA, 0.956; under TGACCCGGCT, 1.01.
In the case of TCATATGATG, the switch fluorescence ratio was 1.01.
With GCAGTCGCTT, the switch fluorescence ratio worked out at 0.978.
For the sequence GATGTCGTAA, the switch fluorescence ratio was found to be 1.01.
On to ACGTGGTATT, for which the switch fluorescence ratio came out at 1.01.
Regarding TGTGAATGAT, the switch fluorescence ratio turned out to be 1.04.
TCGAATCTCG: the switch fluorescence ratio amounted to 0.978.
The value for GAGGTTCTGA was 0.971; that for AGTAAACGTT was 1.05; that for AAATTAGATA was 0.987.
The value for ACCGTGCTTC was 1.07; that for TCTAAATTCT was 1; that for TACGTCAAGG was 1.12.
The value for GCTGTATTTT was 1.01.
TCTCTTCACT: the switch fluorescence ratio was 1.09.
The value for GGGTTTCTCA was 1; that for ACATGGCTAG was 1.03.
The value for CGGTTTGCCG was 1.06; that for TACCTGGGAT was 1.03; that for AGGGCCAATA was 1.09.
Under CGTGAGAACA stands 0.989; under AAGATGAGTG, 0.947; under GACGTGGCAG, 1.01.

Source of the values: the supplement of paper PMC10126150.
